The nature of the data set: TGA and DSC characterization. In kind it is physicochemical. The following applies: successive thermal events listed per polymorph. Here is the method:
The PXRD diffraction patterns were obtained on X-ray powder diffraction PANalytical X′pert Pro equipped with X′Celerator, in a measurement range between 3 and 40 2 theta. All the DSC experiments were performed with a DSC 7 Perkin Elmer instrument in a temperature range between 25° C. and 250° C. with a heating rate of 10° C./min.
All the TGA experiments were conducted with a TGA 7 Perkin Elmer instrument in a temperature range between 39° C. and 310° C. with a heating rate of 10° C./min.
PXRD, DSC, TGA and IR analyses were obtained for Bupropion Hydrobromide Polymorph Form I, Form II, Form III, Form IV, Form V, Form VI, and Form VII. PXRD analyses were obtained for the amorphous form. With respect to the PXRD analyses, the Peak List is shown for Form I, Form II, Form III, Form IV, Form V, Form VI, Form VII and the amorphous form in Table 56, Table 57, Table 58, Table 59, Table 60, Table 61, Table 62 and Table 63 respectively.

Entries with a single value are a further part of the results.

Consider `Br.CC(NC(C)(C)C)C(=O)c1cccc(Cl)c1` (single isomer, unassigned) [Form II], for which the “DSC (onset ° C.)” value was 194.20 °C (first DSC thermal event) and 236.65 °C (second DSC thermal event).
In the same order, the values of `Br.CC(NC(C)(C)C)C(=O)c1cccc(Cl)c1` (stereo not shown) [Form IV] are 149.89 °C and 233.14 °C.

The values above are taken from patent US8604085B2, “Bupropion hydrobromide polymorphs” (Valeant International Bermuda, priority 2008, dated 2013).
